Experimental data published in publication PMC6155134.
No constants are given. Whether binding was seen depends on the method and setting. In cells and extracts the contact can be indirect. Some binding calls cover weakened binding; strength is not graded here.

Chains of the proteins cited; added tags and fusions are not shown. Lines headed by an entry give the natural chain unless they say otherwise; changes in a name come on top. A line that says so, or that is headed by a name, gives the form on record, which may keep a tag or linker.
BCL11A-L (773 amino acids) (Q9H165, form named): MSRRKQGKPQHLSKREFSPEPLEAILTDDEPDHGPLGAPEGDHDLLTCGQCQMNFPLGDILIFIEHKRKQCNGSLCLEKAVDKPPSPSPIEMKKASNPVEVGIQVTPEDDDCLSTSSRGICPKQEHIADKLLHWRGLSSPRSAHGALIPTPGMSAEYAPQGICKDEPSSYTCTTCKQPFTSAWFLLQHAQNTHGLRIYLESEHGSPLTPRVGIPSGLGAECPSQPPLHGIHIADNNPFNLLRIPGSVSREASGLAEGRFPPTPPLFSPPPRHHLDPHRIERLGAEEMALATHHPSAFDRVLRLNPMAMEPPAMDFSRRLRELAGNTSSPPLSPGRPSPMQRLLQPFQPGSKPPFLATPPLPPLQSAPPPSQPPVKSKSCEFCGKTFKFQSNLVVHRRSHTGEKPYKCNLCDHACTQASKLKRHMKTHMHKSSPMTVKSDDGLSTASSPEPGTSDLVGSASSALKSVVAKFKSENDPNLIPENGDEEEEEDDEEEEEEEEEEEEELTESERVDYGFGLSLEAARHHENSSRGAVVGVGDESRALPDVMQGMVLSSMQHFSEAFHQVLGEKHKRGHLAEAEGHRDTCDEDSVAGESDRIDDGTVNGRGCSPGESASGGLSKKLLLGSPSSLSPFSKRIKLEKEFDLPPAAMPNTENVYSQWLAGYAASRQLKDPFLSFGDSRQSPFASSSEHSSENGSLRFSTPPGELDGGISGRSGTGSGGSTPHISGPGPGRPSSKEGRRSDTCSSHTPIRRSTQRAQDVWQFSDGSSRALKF

Key:
Assay in all cases: FRET or BRET; BRET in live HEK293 cells transfected with equimolar YFP and Rluc fusion constructs; read 48 h after transfection, after 4 h at 37 °C with 60 µM EnduRen; corrected BRET ratio, YFP-NLS and Rluc-NLS as control proteins
FOXP2 (human) = FOXP2 (human) (UniProt O15409)
[1] = molecular target: T1, TBR1 (T-box brain, 1), wild type (human) (UniProt Q16650)
T1 sequence: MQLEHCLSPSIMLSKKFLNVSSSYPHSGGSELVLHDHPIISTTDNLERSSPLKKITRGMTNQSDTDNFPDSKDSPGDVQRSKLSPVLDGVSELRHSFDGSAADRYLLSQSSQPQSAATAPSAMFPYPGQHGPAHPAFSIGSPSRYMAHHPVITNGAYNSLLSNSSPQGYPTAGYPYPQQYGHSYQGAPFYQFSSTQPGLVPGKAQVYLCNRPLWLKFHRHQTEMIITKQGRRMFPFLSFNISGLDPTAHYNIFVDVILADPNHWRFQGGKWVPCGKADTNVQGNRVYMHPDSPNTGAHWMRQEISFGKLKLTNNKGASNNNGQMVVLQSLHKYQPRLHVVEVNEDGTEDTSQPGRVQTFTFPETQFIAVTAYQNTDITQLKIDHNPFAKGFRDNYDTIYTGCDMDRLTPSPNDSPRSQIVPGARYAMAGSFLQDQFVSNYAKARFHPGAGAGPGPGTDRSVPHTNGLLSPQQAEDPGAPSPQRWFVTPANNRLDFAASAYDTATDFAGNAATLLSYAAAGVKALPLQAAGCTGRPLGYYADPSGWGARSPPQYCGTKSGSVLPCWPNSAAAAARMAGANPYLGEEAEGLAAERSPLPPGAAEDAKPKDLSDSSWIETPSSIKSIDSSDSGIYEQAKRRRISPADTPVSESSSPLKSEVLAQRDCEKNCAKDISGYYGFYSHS

[2] = molecular target: BCL11A-L (773 amino acids) (human) (UniProt Q9H165)
FOXP1 (human) = molecular target: T2, FOXP1 (human) (UniProt Q9H334)
T2 sequence: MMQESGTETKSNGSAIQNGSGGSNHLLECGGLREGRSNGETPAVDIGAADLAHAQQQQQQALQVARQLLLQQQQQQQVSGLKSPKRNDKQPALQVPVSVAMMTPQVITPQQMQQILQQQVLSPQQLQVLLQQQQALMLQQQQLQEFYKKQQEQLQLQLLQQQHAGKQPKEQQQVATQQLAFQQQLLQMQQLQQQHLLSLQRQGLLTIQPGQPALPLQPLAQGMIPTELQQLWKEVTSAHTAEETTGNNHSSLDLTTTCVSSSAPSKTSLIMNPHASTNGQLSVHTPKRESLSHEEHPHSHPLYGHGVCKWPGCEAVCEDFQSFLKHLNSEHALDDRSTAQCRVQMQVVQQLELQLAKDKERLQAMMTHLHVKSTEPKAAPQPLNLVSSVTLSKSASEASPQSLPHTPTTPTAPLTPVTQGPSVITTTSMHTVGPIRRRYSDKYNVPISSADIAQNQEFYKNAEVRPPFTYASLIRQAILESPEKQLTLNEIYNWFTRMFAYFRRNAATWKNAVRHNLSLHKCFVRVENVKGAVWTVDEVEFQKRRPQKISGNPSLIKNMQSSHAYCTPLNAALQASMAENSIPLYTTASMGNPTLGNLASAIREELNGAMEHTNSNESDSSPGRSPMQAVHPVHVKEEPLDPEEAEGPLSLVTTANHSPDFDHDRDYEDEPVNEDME

TBR1 p.W271R (human) = TBR1 p.W271R (human) (UniProt Q16650)
TBR1 p.W271C (human) = TBR1 p.W271C (human) (UniProt Q16650)
TBR1 p.K389E (human) = TBR1 p.K389E (human) (UniProt Q16650)
FOXP2 (human), O15409 = molecular target: T3, FOXP2 (human), O15409; conditions: remark: other sources report otherwise
T3 chain: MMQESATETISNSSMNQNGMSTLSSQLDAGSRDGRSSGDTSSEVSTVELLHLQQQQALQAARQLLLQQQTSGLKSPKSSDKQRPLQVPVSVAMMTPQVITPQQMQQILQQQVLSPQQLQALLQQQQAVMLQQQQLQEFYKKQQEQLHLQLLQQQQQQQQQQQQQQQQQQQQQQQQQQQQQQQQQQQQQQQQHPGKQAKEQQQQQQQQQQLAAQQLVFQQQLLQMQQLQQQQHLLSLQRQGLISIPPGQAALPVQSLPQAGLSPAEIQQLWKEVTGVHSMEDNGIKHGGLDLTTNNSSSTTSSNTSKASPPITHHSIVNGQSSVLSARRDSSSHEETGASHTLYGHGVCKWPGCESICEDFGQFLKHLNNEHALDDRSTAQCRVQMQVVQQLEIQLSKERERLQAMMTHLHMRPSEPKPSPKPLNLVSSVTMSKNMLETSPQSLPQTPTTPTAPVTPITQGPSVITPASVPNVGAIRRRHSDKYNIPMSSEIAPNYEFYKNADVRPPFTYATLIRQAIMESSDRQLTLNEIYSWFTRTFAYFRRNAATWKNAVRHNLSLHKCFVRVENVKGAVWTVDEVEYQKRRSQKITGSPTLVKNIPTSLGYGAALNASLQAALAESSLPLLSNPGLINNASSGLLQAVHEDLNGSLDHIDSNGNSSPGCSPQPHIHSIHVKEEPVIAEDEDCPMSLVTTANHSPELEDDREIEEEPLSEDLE

FOXP1 (human), Q9H334 = molecular target: T4, FOXP1 (human), Q9H334; conditions: remark: other sources report otherwise
T4 chain: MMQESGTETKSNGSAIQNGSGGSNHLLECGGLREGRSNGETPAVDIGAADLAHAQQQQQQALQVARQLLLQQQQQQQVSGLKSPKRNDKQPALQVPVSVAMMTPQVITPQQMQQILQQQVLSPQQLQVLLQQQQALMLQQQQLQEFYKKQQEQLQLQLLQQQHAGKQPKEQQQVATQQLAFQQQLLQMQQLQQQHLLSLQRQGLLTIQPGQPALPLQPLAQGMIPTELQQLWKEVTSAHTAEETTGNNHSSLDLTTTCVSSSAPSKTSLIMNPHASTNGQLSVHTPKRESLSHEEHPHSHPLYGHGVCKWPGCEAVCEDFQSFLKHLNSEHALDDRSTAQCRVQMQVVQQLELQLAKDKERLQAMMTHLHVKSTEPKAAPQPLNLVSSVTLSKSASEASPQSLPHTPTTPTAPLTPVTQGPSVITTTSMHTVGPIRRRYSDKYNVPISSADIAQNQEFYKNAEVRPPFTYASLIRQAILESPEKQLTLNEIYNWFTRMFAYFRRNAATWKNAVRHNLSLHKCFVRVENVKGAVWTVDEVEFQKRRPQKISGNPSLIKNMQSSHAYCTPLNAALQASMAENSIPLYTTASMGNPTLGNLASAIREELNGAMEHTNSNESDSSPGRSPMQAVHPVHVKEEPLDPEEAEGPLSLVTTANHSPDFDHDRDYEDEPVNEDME

B1: TBR1 p.W271R (protein, UniProt Q16650-1 1-682)
chain: MQLEHCLSPSIMLSKKFLNVSSSYPHSGGSELVLHDHPIISTTDNLERSSPLKKITRGMTNQSDTDNFPDSKDSPGDVQRSKLSPVLDGVSELRHSFDGSAADRYLLSQSSQPQSAATAPSAMFPYPGQHGPAHPAFSIGSPSRYMAHHPVITNGAYNSLLSNSSPQGYPTAGYPYPQQYGHSYQGAPFYQFSSTQPGLVPGKAQVYLCNRPLWLKFHRHQTEMIITKQGRRMFPFLSFNISGLDPTAHYNIFVDVILADPNHWRFQGGKRVPCGKADTNVQGNRVYMHPDSPNTGAHWMRQEISFGKLKLTNNKGASNNNGQMVVLQSLHKYQPRLHVVEVNEDGTEDTSQPGRVQTFTFPETQFIAVTAYQNTDITQLKIDHNPFAKGFRDNYDTIYTGCDMDRLTPSPNDSPRSQIVPGARYAMAGSFLQDQFVSNYAKARFHPGAGAGPGPGTDRSVPHTNGLLSPQQAEDPGAPSPQRWFVTPANNRLDFAASAYDTATDFAGNAATLLSYAAAGVKALPLQAAGCTGRPLGYYADPSGWGARSPPQYCGTKSGSVLPCWPNSAAAAARMAGANPYLGEEAEGLAAERSPLPPGAAEDAKPKDLSDSSWIETPSSIKSIDSSDSGIYEQAKRRRISPADTPVSESSSPLKSEVLAQRDCEKNCAKDISGYYGFYSHS
- binding (FOXP2 (human)): binds
- binding [1]: binds
- binding [2]: binds
- binding (FOXP1 (human)): binds
- binding (TBR1 p.W271R (human)): binds

B2: TBR1 p.W271C (protein, UniProt Q16650-1 1-682)
chain: MQLEHCLSPSIMLSKKFLNVSSSYPHSGGSELVLHDHPIISTTDNLERSSPLKKITRGMTNQSDTDNFPDSKDSPGDVQRSKLSPVLDGVSELRHSFDGSAADRYLLSQSSQPQSAATAPSAMFPYPGQHGPAHPAFSIGSPSRYMAHHPVITNGAYNSLLSNSSPQGYPTAGYPYPQQYGHSYQGAPFYQFSSTQPGLVPGKAQVYLCNRPLWLKFHRHQTEMIITKQGRRMFPFLSFNISGLDPTAHYNIFVDVILADPNHWRFQGGKCVPCGKADTNVQGNRVYMHPDSPNTGAHWMRQEISFGKLKLTNNKGASNNNGQMVVLQSLHKYQPRLHVVEVNEDGTEDTSQPGRVQTFTFPETQFIAVTAYQNTDITQLKIDHNPFAKGFRDNYDTIYTGCDMDRLTPSPNDSPRSQIVPGARYAMAGSFLQDQFVSNYAKARFHPGAGAGPGPGTDRSVPHTNGLLSPQQAEDPGAPSPQRWFVTPANNRLDFAASAYDTATDFAGNAATLLSYAAAGVKALPLQAAGCTGRPLGYYADPSGWGARSPPQYCGTKSGSVLPCWPNSAAAAARMAGANPYLGEEAEGLAAERSPLPPGAAEDAKPKDLSDSSWIETPSSIKSIDSSDSGIYEQAKRRRISPADTPVSESSSPLKSEVLAQRDCEKNCAKDISGYYGFYSHS
- binding (FOXP2 (human)): no binding
- binding [1]: binds
- binding [2]: binds
- binding (FOXP1 (human)): no binding
- binding (TBR1 p.W271C (human)): binds

B3: TBR1 p.K389E (protein, UniProt Q16650-1 1-682)
chain: MQLEHCLSPSIMLSKKFLNVSSSYPHSGGSELVLHDHPIISTTDNLERSSPLKKITRGMTNQSDTDNFPDSKDSPGDVQRSKLSPVLDGVSELRHSFDGSAADRYLLSQSSQPQSAATAPSAMFPYPGQHGPAHPAFSIGSPSRYMAHHPVITNGAYNSLLSNSSPQGYPTAGYPYPQQYGHSYQGAPFYQFSSTQPGLVPGKAQVYLCNRPLWLKFHRHQTEMIITKQGRRMFPFLSFNISGLDPTAHYNIFVDVILADPNHWRFQGGKWVPCGKADTNVQGNRVYMHPDSPNTGAHWMRQEISFGKLKLTNNKGASNNNGQMVVLQSLHKYQPRLHVVEVNEDGTEDTSQPGRVQTFTFPETQFIAVTAYQNTDITQLKIDHNPFAEGFRDNYDTIYTGCDMDRLTPSPNDSPRSQIVPGARYAMAGSFLQDQFVSNYAKARFHPGAGAGPGPGTDRSVPHTNGLLSPQQAEDPGAPSPQRWFVTPANNRLDFAASAYDTATDFAGNAATLLSYAAAGVKALPLQAAGCTGRPLGYYADPSGWGARSPPQYCGTKSGSVLPCWPNSAAAAARMAGANPYLGEEAEGLAAERSPLPPGAAEDAKPKDLSDSSWIETPSSIKSIDSSDSGIYEQAKRRRISPADTPVSESSSPLKSEVLAQRDCEKNCAKDISGYYGFYSHS
- binding (TBR1 p.K389E (human)): binds
- binding (FOXP2 (human)): no binding
- binding [1]: binds
- binding [2]: binds
- binding (FOXP1 (human)): no binding

B4: TBR1 (T-box brain, 1), wild type, Q16650-1 1-682 (protein)
chain: MQLEHCLSPSIMLSKKFLNVSSSYPHSGGSELVLHDHPIISTTDNLERSSPLKKITRGMTNQSDTDNFPDSKDSPGDVQRSKLSPVLDGVSELRHSFDGSAADRYLLSQSSQPQSAATAPSAMFPYPGQHGPAHPAFSIGSPSRYMAHHPVITNGAYNSLLSNSSPQGYPTAGYPYPQQYGHSYQGAPFYQFSSTQPGLVPGKAQVYLCNRPLWLKFHRHQTEMIITKQGRRMFPFLSFNISGLDPTAHYNIFVDVILADPNHWRFQGGKWVPCGKADTNVQGNRVYMHPDSPNTGAHWMRQEISFGKLKLTNNKGASNNNGQMVVLQSLHKYQPRLHVVEVNEDGTEDTSQPGRVQTFTFPETQFIAVTAYQNTDITQLKIDHNPFAKGFRDNYDTIYTGCDMDRLTPSPNDSPRSQIVPGARYAMAGSFLQDQFVSNYAKARFHPGAGAGPGPGTDRSVPHTNGLLSPQQAEDPGAPSPQRWFVTPANNRLDFAASAYDTATDFAGNAATLLSYAAAGVKALPLQAAGCTGRPLGYYADPSGWGARSPPQYCGTKSGSVLPCWPNSAAAAARMAGANPYLGEEAEGLAAERSPLPPGAAEDAKPKDLSDSSWIETPSSIKSIDSSDSGIYEQAKRRRISPADTPVSESSSPLKSEVLAQRDCEKNCAKDISGYYGFYSHS
- binding (FOXP2 (human), O15409): binds
- binding (FOXP1 (human), Q9H334): binds
